Assay results as given in PMC4336329 (PLoS ONE, 2015).
Hit rate of the full screen: of about 310,000 compounds, about 14,000 (4.5%) showed an effect of 50% or more. The effect is printed as a negative number. The list shows a part of the results.

target: human ether-à-go-go-related gene (hERG) potassium channel (human, UniProt Q12809); experiment: primary screen, population patch clamp on CHO cells stably expressing hERG
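Further: peak tail current of the secondary pulse compared with the same well before compound.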

Sequence of human ether-à-go-go-related gene (hERG) potassium channel (Q12809 whole entry, looked up): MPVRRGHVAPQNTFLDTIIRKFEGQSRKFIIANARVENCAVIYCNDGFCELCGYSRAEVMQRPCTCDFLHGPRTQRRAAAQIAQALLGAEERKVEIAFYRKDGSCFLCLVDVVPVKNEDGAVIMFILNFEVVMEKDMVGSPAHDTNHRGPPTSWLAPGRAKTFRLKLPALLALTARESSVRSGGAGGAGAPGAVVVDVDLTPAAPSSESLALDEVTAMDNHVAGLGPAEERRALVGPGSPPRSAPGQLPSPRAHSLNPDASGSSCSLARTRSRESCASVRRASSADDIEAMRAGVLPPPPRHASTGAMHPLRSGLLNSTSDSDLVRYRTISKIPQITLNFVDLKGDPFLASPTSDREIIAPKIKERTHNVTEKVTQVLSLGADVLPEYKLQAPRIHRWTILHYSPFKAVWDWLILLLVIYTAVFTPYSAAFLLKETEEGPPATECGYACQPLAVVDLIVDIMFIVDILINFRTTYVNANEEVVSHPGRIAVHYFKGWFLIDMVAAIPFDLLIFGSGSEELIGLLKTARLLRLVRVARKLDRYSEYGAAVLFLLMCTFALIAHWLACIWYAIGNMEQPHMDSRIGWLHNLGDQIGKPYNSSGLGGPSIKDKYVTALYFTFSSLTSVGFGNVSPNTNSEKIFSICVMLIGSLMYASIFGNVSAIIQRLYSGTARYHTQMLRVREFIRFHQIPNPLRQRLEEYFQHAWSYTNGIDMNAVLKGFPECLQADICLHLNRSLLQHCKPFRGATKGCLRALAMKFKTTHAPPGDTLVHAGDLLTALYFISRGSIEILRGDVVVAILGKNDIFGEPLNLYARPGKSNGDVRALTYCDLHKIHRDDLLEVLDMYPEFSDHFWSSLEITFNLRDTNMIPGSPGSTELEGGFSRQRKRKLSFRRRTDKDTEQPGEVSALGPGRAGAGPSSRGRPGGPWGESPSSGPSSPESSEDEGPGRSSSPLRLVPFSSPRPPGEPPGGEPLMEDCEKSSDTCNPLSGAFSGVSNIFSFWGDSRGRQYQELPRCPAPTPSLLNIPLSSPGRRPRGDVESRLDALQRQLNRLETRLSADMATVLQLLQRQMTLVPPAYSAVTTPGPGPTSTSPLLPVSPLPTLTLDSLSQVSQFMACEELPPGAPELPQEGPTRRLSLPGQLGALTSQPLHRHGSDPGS

SMILES | hERG current change (%, negative = inhibition) at 10uM
C=CCNS(=O)(=O)c1ccc(N2C(=O)c3ccccc3C2=O)cc1 | -14.8%
CCCNC(=O)c1ccc(S(=O)(=O)c2ccc(OC)cc2)c([N+](=O)[O-])c1 | -31.2%
O=C(Nn1cnnc1)c1ccccc1-c1ccccc1 | 8.34%
COc1ccc(/C=C/C2=CC(C)(C)NC(=S)N2)cc1 | 24.3%
CC(C)NC(=O)c1onc(CSc2ccccc2F)c1C(=O)O | 12%
N#Cc1ccc(OCC(=O)NCCN2CCOCC2)cc1 | -11.7%
COc1ccc(NC(=S)N2CCNC(=O)C2CC(=O)Nc2ccc(C)cc2)cc1 (stereo not drawn) | 4.88%
CN(CCc1ccccn1)C1CC(=O)N(c2ccc(Cl)cc2)C1=O (stereo not drawn) | 6.39%
CCc1ccc(N=C2NC(=O)/C(=C/c3ccc(OCC(=O)O)cc3)S2)cc1 | 14.6%
COCCCNC(=O)Cn1c(=O)oc2cc(S(=O)(=O)N3CC(C)CC(C)C3)ccc21 (stereo not drawn) | 9.37%
CC1(C)CC(=O)/C(=C(\O)Cc2ccccc2)C(=NCCCCCC(=O)O)C1 | -13.3%
CC(C)N=Cc1c(O)[nH]c2ccccc12 | 2.82%
CC(C)CN(C(=O)COC(=O)c1ccccn1)c1c(N)n(Cc2ccccc2)c(=O)[nH]c1=O | -12.6%
Cc1nc(NS(=O)(=O)c2ccccc2)sc1C(=O)N/N=C/c1ccccc1 | -2%
CCN(CC)c1ccc(/C=N/NC(=O)c2cc3ccccc3[nH]2)cc1 | 2.97%
O=C(c1ccco1)N1CCC(c2nc(-c3ccccc3Cl)no2)CC1 | -11.5%
Cc1ccccc1N(C(=O)Cc1c[nH]c2ccccc12)C(C(=O)NC1CCCCC1)c1ccco1 (stereo not drawn) | 0.806%
OC(CNC1CCCCC1)CNC1CCCCC1 | 30.4%
O=[N+]([O-])c1ccccc1CSc1ccccn1 | 11.4%
Cc1ccc(N2CCN(c3ccc(NC(=O)CCC(=O)O)cc3)CC2)cc1 | 19.6%
CCOC(=O)C1(CC2CC2)CCN(S(=O)(=O)C[C@]23CC[C@H](CC2=O)C3(C)C)CC1 | -0.149%
CCOc1ccc(Oc2nc(C)cc(OC)n2)nn1 | -2.43%

SMILES | hERG current change (%, negative = inhibition) at 10uM
CCN(CC)CCN(C(=O)c1ccc2ccccc2c1)c1nc2cc3c(cc2s1)OCO3.Cl | -38.6%
Cc1c(CCO)c(=O)[nH]n1S(=O)(=O)c1ccc(F)cc1 | 24.4%
COc1cc2c(cc1OC)-c1cc(NC3CCCCCC3)nc(=O)n1CC2 | -28.8%
O=C(Nc1ccc2c(c1)C(=O)NC2=O)c1ccc(S(=O)(=O)N2CCCC2)cc1 | 11.5%
Cc1cccc(C)c1NC(=O)CCCSc1nnnn1C | 10.8%
C=CCN1CCN(C(=O)c2ccc(-c3ccccc3)cc2)CC1 | -12.6%
C=CCSc1n[nH]c(-c2ccc(OCCC)cc2)n1 | -0.572%
CC1C(=O)CCC1(C(=O)O)c1ccccc1 (stereo not drawn) | 13.2%
Cn1c(N)c(C(=O)COC(=O)[C@H](Cc2ccccc2)N2C(=O)c3ccccc3C2=O)c(=O)n(C)c1=O | 5.45%
CCCOc1ccc(CN(CCC#N)C(=S)NC(=O)c2ccccc2)cc1 | 3.28%
Cc1ccccc1C(=O)Nc1ccnn1C1CCN(Cc2ccccn2)CC1 | -33.9%
O=C(NCc1ccncc1)c1cccc(NS(=O)(=O)c2ccc(F)c(F)c2)c1 | -20.9%
S=C(NCCN1CCOCC1)Nc1ccc(Cl)cc1 | 5.48%
Cc1cc(Cl)cc2sc(NC(=O)C3CC3)nc12 | -1.02%
CCOC(=O)c1ccc(N2C(=O)C(O)=C(C(C)=O)C2c2ccc([N+](=O)[O-])cc2)cc1 (stereo not drawn) | 22.2%
Cc1nc(-c2ccc(S(=O)(=O)N3CCN(Cc4ccccc4)CC3)s2)cs1 | 5.81%
CCN1C(C(=O)c2ccccc2)=C(Nc2ccccc2C)c2ccccc2S1(=O)=O | -4.84%
CC1(C)Cc2nc3sc4c(=O)n(CC(N)=O)cnc4c3cc2CO1 | 3.05%
O=C(COC(=O)C1CCN(c2ccc(C(F)(F)F)cn2)CC1)c1ccccc1Cl | 7.24%
CCOc1ccc(CNC(=O)CCC(=O)N2CCSc3ccccc32)cc1 | -18.2%
CC(NC(=O)CCc1nnc(C2(c3ccc(Cl)cc3)CCC2)o1)C1CC1 (stereo not drawn) | -3.59%
CSc1ccccc1NS(=O)(=O)c1ccccc1 | 2.62%

SMILES | hERG current change (%, negative = inhibition) at 10uM
O=C(c1ccccc1)N1CCN(S(=O)(=O)c2ccc(Cl)c(C(F)(F)F)c2)CC1 | -1.61%
CC[n+]1c(/C=C/c2ccc(N(C)C)cc2)ccc2ccccc21.[I-] | -72.9%
Cc1c(NC(=O)c2cccc(-c3cc4ccccc4oc3=O)c2)cccc1-c1nc2ncccc2o1 | -39.9%
Cn1c(C(=O)c2ccccc2[N+](=O)[O-])nc2ccccc21 | -26.6%
O=C1C=CC(=O)N1c1ccc(O)cc1 | 3.01%
CCOC(=O)c1csc(N/N=C2\CCc3ccccc32)n1 | 9.37%
COc1ccc(NC(=O)N2CCC(O)(c3cccnc3)CC2)c(OC)c1 | 14.6%
O=C(Nc1ccncc1NC(=O)c1cccc([N+](=O)[O-])c1)c1cccc([N+](=O)[O-])c1 | -14.5%
COc1ccc(CN2C(=NC(=O)CCc3ccccc3)SC3CS(=O)(=O)CC32)cc1 (stereo not drawn) | 3.85%
O=C(Nc1ccccc1SCC1CSc2nc3ccccc3c(=O)n21)c1ccccc1Cl (stereo not drawn) | -70.5%
Cc1ccc(-c2ccc(=O)n(CC(=O)NCCN3C(C)CCCC3C)n2)cc1 (stereo not drawn) | 0.00388%
CC(C)NCCCCOc1ccccc1-c1ccccc1.O=C(O)C(=O)O | -32.9%
O=C(NCCN1CCOCC1)C1CC(=O)N(c2ccc(F)c(Cl)c2)C1 (stereo not drawn) | -3.45%
Cc1cccc(/C=C2\Sc3ccc(C(=O)N4CCOCC4)cc3N(C)C2=O)c1 | -40.7%
COc1ccc(C(=O)Cc2ccc(OC)c(OC)c2)c(OC)c1 | -0.547%
O=c1c2c(n3cnnc3n1C1CCCCC1)-c1ccccc1CC21CCCCC1 | 6.54%
Cc1cccc(CNS(=O)(=O)c2csc(C(N)=O)c2)c1 | 20%
O=C(Nc1ccc(S(=O)(=O)NCc2cccnc2)cc1)c1ccccc1Cl | 8.33%
CCN(CC)C(=O)C(=O)c1cc(C)n(-c2ccc(F)cc2)c1C | 10.9%
CCCCCC(=O)Nc1nc(C)c(-c2csc(Nc3ccc(Cl)cc3)n2)s1 | 6.11%
O=C1N(c2nncs2)CCN1[N+](=O)[O-] | 17%
CCCOc1cccc(C(=O)N(Cc2ccccc2)C2CCS(=O)(=O)C2)c1 (stereo not drawn) | -1.09%

SMILES | hERG current change (%, negative = inhibition) at 10uM
COc1ccc(C2C3=C(CCCC3=O)N(CC(=O)O)C3=C2C(=O)CCC3)cc1Cl | 23.8%
C/C(=N\NC(=O)c1ccc([N+](=O)[O-])cc1)c1cccc([N+](=O)[O-])c1 | 5.82%
CC1CCCCC1NC(=O)COn1nnc2ccc(Cl)cc21 (stereo not drawn) | -14.3%
CCC1Sc2ccc(S(=O)(=O)CCC(=O)Nc3ccccc3Cl)cc2NC1=O (stereo not drawn) | 11.1%
Cc1ccc(NC(=O)Nc2nnc(-c3ccccc3)o2)cc1 | 16.9%
CC1CCN(S(=O)(=O)N2CCCC(C(=O)NCc3ccccc3Cl)C2)CC1 (stereo not drawn) | -5.93%
Cc1cccc(Cc2cnc(N3C(=N)SC(C)C3=O)s2)c1 (stereo not drawn) | -5.9%
CCC1CN(C(=O)N2CCC(C(=O)NCCc3ccccc3OC)CC2)c2ccccc2O1 (stereo not drawn) | -15.2%
CCCn1c(SCC(=O)Nc2cccc(NC(C)=O)c2)nnc1C(C)C | 8.38%
CC(NS(=O)(=O)c1ccc(Cl)cc1)C(=O)NCc1ccco1 (stereo not drawn) | -5.76%
Cc1cc(OCC(=O)N2CCC(C(=O)O)(c3ccccc3)CC2)c2c(C)c(C)c(=O)oc2c1 | -0.248%
COc1cccc(OCc2nnc(SCC(=O)N3c4ccccc4Sc4ccc(Cl)cc43)o2)c1 | 13.8%
O=C(NCc1ccccn1)Nc1ccc(Cl)c(Cl)c1 | -18.6%
Cc1cc(SCC(=O)NCC2CCCO2)nc2ccccc12 (stereo not drawn) | -10.1%
c1ccc2c(C3=NNC(=NC4CCCCC4)SC3)c[nH]c2c1 | -6.92%
CC1CCN(C(=O)c2ccc([N+](=O)[O-])o2)CC1 | 4.53%
CCOc1cc2[nH]c(=O)n(CCCCCC(=O)NC3CCCC3)c(=O)c2cc1OCC | -0.581%
COCCOC(=O)C1=C(C)Nc2ncnn2C1c1ccccc1 (stereo not drawn) | 1.22%
CCOc1ccc2[nH]c(=O)c(CN(CCO)C(=O)c3ccc(F)cc3)cc2c1 | 8.24%
CC(O)C(NS(=O)(=O)c1ccc(Cl)cc1)C(=O)OCC(=O)c1c[nH]c2ccccc12 (stereo not drawn) | 11.7%
Cc1cc(OCC(=O)NCCCN2CCOCC2)c2c(C)cc(=O)oc2c1 | -10.8%
